Publication PMC4336329 (PLoS ONE, 2015)
Among all 310,000 compounds or so, about 2,200 (0.71%) showed an effect of 50% or more. The effect is printed as a negative number. Some of the results follow.

These compounds were tested against human ether-à-go-go-related gene (hERG) potassium channel (human, UniProt Q12809) (assay: primary screen, population patch clamp on CHO cells stably expressing hERG).
human ether-à-go-go-related gene (hERG) potassium channel, sequence (Q12809 whole entry, looked up): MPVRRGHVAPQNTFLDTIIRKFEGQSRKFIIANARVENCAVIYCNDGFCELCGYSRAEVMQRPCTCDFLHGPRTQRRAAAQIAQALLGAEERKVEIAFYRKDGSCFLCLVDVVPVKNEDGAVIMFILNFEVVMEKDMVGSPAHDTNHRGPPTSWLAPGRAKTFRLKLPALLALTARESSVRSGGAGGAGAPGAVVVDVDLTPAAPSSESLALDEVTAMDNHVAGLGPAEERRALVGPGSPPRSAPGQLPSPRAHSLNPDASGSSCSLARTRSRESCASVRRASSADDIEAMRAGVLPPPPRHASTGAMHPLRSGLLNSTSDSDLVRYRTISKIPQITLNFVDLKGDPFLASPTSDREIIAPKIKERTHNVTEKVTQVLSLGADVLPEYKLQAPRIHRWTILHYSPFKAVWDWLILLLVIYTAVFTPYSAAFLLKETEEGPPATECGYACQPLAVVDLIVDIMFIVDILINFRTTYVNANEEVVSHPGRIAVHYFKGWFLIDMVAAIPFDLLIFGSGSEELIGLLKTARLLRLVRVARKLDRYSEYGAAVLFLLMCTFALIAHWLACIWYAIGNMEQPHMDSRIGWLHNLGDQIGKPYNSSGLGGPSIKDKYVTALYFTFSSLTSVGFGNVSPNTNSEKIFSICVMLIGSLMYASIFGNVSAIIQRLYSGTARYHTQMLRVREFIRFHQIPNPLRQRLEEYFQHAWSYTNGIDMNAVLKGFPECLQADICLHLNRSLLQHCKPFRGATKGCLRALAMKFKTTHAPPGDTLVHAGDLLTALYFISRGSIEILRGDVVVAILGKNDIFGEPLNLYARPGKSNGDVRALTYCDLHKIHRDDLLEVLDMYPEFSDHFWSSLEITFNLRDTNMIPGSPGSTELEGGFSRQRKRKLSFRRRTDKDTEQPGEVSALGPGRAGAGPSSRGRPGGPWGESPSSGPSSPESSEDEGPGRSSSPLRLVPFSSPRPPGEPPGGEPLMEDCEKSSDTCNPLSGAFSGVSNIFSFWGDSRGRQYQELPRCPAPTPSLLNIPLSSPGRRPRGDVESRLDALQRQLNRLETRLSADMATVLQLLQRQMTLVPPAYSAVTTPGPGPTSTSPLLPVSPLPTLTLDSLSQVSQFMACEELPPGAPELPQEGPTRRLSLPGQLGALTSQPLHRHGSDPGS

| SMILES | hERG current change (%, negative = inhibition) at 1uM [%] |
| --- | --- |
| COc1ccccc1CCNC(=O)CN1C(=O)c2ccccc2S1(=O)=O | 9.09 |
| COc1ccccc1CNC(=O)CCC(=O)n1ncc2cc(C)ccc21 | 12.3 |
| c1ccc(Cn2c(CSc3nnnn3-c3ccccc3)nc3ccccc32)cc1 | 10.1 |
| Cc1cccc(Nc2nnc(C)c(=O)n2N)c1 | -8.9 |
| O=C(NCc1ccccn1)c1cc2c(ccc3ccccc32)oc1=O | 8.77 |
| CC(C)CNC(=S)NC(=O)c1ccc([N+](=O)[O-])cc1 | 5.61 |
| O=C(Cc1c(C(=O)O)[nH]c2ccccc12)NC1CCCC1 | 15.3 |
| CCCC(=O)N1N=C(c2ccccc2)CC1c1cn(C)c2ccccc12 (centres unmarked) | 4.39 |
| O=C(CCN1C(=O)/C(=C/c2ccccc2F)SC1=S)NCCCN1CCOCC1 | 2.83 |
| Cc1cc(C)c(CN2CCN(Cc3ccc(C)o3)C(CCO)C2)c(-n2cccn2)c1 (centres unmarked) | -70.9 |
| COc1ccc(CCn2c(-c3ccc(C(C)(C)C)cc3)n[nH]c2=S)cc1OC | 9.83 |
| COc1cc(-c2cc(C(=O)O)c3c(OC)c(OC)c(OC)cc3n2)ccc1O | 9.62 |
| Cc1nn2c(=O)c3c4c(sc3nc2n1-c1ccccc1)COC(C)(C)C4 | 9.75 |
| COc1ccc(C(=O)c2ccc(N(C)C)cc2)c(OC)c1 | -0.697 |
| CC(=O)N(CC(=O)O)c1ccccc1C(=O)O | 7.66 |
| CNc1ccccc1 | 10.4 |
| Cc1cc(/C=N/Nc2ccc([N+](=O)[O-])cn2)c(C)n1-c1ccccc1 | 11.6 |
| Cc1ccc(C)c(NC(=O)C2C3CCCC2C3c2ccccc2)c1 (centres unmarked) | 11.4 |
| N#Cc1cc2ccccc2nc1SCC(=O)Nc1ccccc1N1CCOCC1 | 14.7 |
| CC1=CC(c2ccccc2)n2nc(N3C(=O)c4ccccc4C3=O)nc2N1 (centres unmarked) | 15.2 |
| CCn1c(Cc2ccccc2)nnc1SCC(=O)NC1CCCC1 | 23.6 |
| Cc1ccc(-c2cc(C(=O)N3CCN(C(=O)c4ccco4)CC3)[nH]n2)c(C)c1 | -14.1 |
| Cc1cc(C)cc(N(C(=O)c2ccco2)C(C(=O)NC2CCCC2)c2ccncc2)c1 (centres unmarked) | -3.5 |

| SMILES | hERG current change (%, negative = inhibition) at 1uM [%] |
| --- | --- |
| CCCCC(=O)Nc1ccc(C(=O)N2CCCC(C(=O)OCC)C2)cc1 (centres unmarked) | 11.4 |
| COc1cc(CC2(CCc3ccncc3)C(=O)NC(=O)NC2=O)cc(OC)c1OC | 16.3 |
| CCC(=O)Nc1ccc(NC(=O)CSc2nnnn2-c2cccnc2)cc1C | 11.4 |
| COc1cccc(-c2c(C#N)c(N)nc3c2c(=O)nc2sccn23)c1 | 12.9 |
| CC1CCN(c2c(NCC3CCC(C(=O)NCc4ccccc4Cl)CC3)c(=O)c2=O)CC1 (centres unmarked) | 6.87 |
| COc1ccccc1N1CCN(C(=O)c2cc(-c3ccc(F)cc3)[nH]c2C)CC1 | -22 |
| Cc1ccc(N=Nc2c(N)n[nH]c2N)cc1 | 17.8 |
| CN(C)C(=O)c1cccn(Cc2cccc(C(F)(F)F)c2)c1=O | 12.1 |
| Cc1ccc(S(=O)(=O)N2CC(=O)Nc3ccccc32)c(C)c1NS(C)(=O)=O | 8.93 |
| Cc1ccc(S(=O)(=O)NCC(=O)NCC(=O)NCCc2ccccc2F)cc1C | 5.69 |
| Cl.Fc1ccccc1/C=N/N1CCN(Cc2ccccc2Cl)CC1 | 20.8 |
| COc1ccc2[nH]c(CN3CCN(CCC(C)C)C(CCO)C3)c(C)c2c1 (centres unmarked) | 15.3 |
| COc1cc2cc(C(=O)O)n(C)c2c(OC)c1OC | 5.22 |
| O=C(O)COc1ccc(/C=C/c2nc(-c3ccccc3O)n[nH]2)cc1 | 16.2 |
| CCc1ccc(N2C(=O)CC(N(CC3CCCO3)C(=O)/C=C/C(=O)O)C2=O)cc1 (centres unmarked) | 17.9 |
| Cc1cc(C(=O)N2CCN(c3ccccn3)CC2)no1 | -4.85 |
| CC1=NCCc2c1[nH]c1cc(O)ccc21.Cl.O | 11.7 |
| CCNC(=S)N/N=C/c1cc(C)ccc1C | 17.5 |
| NC(=O)c1cc([N+](=O)[O-])ccc1NCc1ccc(O)cc1 | 7.53 |
| Cc1ccc(SCCNC(=O)CN2C(=O)c3ccccc3S2(=O)=O)cc1 | 3.33 |
| Cc1cc(C)c(C#N)c(SCCS(=O)(=O)Cc2ccccc2)n1 | 20.3 |
| COCCN(CCOC)c1ncnc2c1cnn2-c1ccc(Cl)cc1 | 1.34 |
| Nc1nc2n(n1)C(c1ccco1)CC(c1ccc(Cl)cc1Cl)N2 (centres unmarked) | -1.45 |

| SMILES | hERG current change (%, negative = inhibition) at 1uM [%] |
| --- | --- |
| CCCCCCN1CCN(c2ccc(Cl)cc2)CC1 | -0.331 |
| CCc1nnc(NC(=O)c2n[nH]c(=O)c3ccccc23)s1 | 11.1 |
| CCCCn1c(=O)c(C=Nc2cc([N+](=O)[O-])ccc2OC)c(O)n(CCCCl)c1=O | -27.1 |
| COc1cccc(CNC(=O)CC2C(=O)NCCN2CCCc2ccccc2)c1 (centres unmarked) | 9.23 |
| C(=N\Nc1ccccc1)/c1ccc(N2CCOCC2)cc1 | 9.73 |
| CC(=O)Nc1ccc(S(=O)(=O)Nc2cccc(-n3cnnn3)c2)cc1 | 13.9 |
| CCOP(=O)(OCC)C(O)c1cc(OC)c(OC)c(OC)c1 (centres unmarked) | 7.67 |
| Cn1c(N)c(C(=O)COC(=O)CCCOc2ccc(Cl)cc2Cl)c(=O)n(C)c1=O | 16 |
| COc1ccccc1NC(=S)N(Cc1ccccc1)Cc1cccs1 | 6.04 |
| Cc1cc(C)c(S(=O)(=O)N2CCN(C(=O)N(C)C)CC2)c(C)c1 | 12.9 |
| CCOc1cc2[nH]c(=S)n(CCCN(CC)CC)c(=O)c2cc1OCC | -10.4 |
| COCCNc1nc(-c2cc(-c3ccc(Cl)cc3)on2)cc(C(C)C)n1 | 19.1 |
| O=C(O)C1CCCCC1C(=O)NC1C2CC3CC(C2)CC1C3 (centres unmarked) | 16.4 |
| O=C(CSc1nc(-c2ccccc2)c(-c2ccccc2)[nH]1)NCCN1C(=O)CSC1=O | 8.01 |
| Cc1ccc(F)cc1NC(=O)C1CC(=O)N(CCc2ccccc2)C1 (centres unmarked) | 2.97 |
| O=C(Cn1ccc(C(F)(F)F)n1)N=Nc1c(O)[nH]c2ccccc12 | 6.83 |
| CN(C)S(=O)(=O)c1ccc(N2CCCC2)c(C(=O)Nc2ccc(C(N)=O)cc2)c1 | 0.977 |
| Nn1c(SCC(=O)Nc2ccccc2)nnc1-c1cccnc1 | -2.5 |
| CCOC(=O)c1sc2nc(CSc3ccccc3)nc(N3CCCN(C)CC3)c2c1C.O=C(O)C(=O)O | -8.48 |
| COc1ccc(-c2coc3cc4oc(=O)cc(C)c4cc23)cc1F | 3.54 |
| CSCCC(NC(=O)c1ccccc1Cl)C(=O)N(C)CC(=O)Nc1ccc(N2CCOCC2)cc1 (centres unmarked) | 9.96 |
| CCn1c2ccccc2c2cc(NC(=O)C(C)Oc3ccc(OC)cc3)ccc21 (centres unmarked) | 19.4 |
| Cc1c(CCC(=O)N2CCC[C@H]2C(=O)O)c(=O)oc2c(C)c3oc4c(c3cc12)CCCC4 | 21.1 |

| SMILES | hERG current change (%, negative = inhibition) at 1uM [%] |
| --- | --- |
| CCN(CC)C(=O)CCSc1nnc(-c2ccncc2)o1 | 4.3 |
| C=CCO/N=C(/C)c1c(O)c(CC)c(-c2ccccc2)n(-c2ccccc2)c1=O | 12 |
| Cc1ccc(CNC(=O)C2CCN(C(=O)Nc3ccccc3)CC2)cc1 | 3.04 |
| c1ccc(C(c2ccccc2)c2noc(CN3CCC(c4ccncc4)CC3)n2)cc1 | 4.77 |
| CC(=O)C1=C(O)C(=O)N(c2ccc(S(N)(=O)=O)cc2)C1c1ccc([N+](=O)[O-])cc1 (centres unmarked) | 9.54 |
| CCOc1ccccc1NC(=O)CN(C)S(=O)(=O)c1ccc2[nH]c(=O)oc2c1 | 8.9 |
| CC(=O)c1cccc(NC(=O)c2cc3ccccn3n2)c1 | 1.31 |
| O=C(CN1CCCCC1)Nc1ccccc1-c1ccccc1 | 14.4 |
| O=C(Nc1ccnn1C1CCN(Cc2ccc(CO)o2)CC1)c1ccc2c(c1)OCO2 | 11 |
| O=C(CSCc1ccccc1Br)N/N=C/c1ccc(OCC(=O)N2CCCCC2)cc1 | 12.4 |
| Cc1nn(CC(=O)NC2(C#N)CCCCC2)c(C)c1[N+](=O)[O-] | 3.12 |
| CCC(=O)Nc1ccc2c(c1)ncn2-c1ccccc1 | 12.3 |
| COCCNc1ccnc2c(Cl)cccc12 | -40 |
| COCCNC(=S)NC(=O)CC12CC3CC(CC(C3)C1)C2 | 4.32 |
| Cc1cc2occ(CC(=O)N(C)CC(=O)Nc3ccccc3Br)c2cc1C | 11.9 |
| CC(=O)c1ccc(S(=O)(=O)N(Cc2cc3cc4c(cc3[nH]c2=O)OCCO4)CC2CCCO2)cc1 (centres unmarked) | 7.51 |
| Cc1cc(C)c2[nH]c(=O)c(CN(Cc3ccc4c(c3)OCO4)Cc3nnnn3C3CCCC3)cc2c1 | 9.27 |
| CN(C)S(=O)(=O)c1ccc(N2C(=O)CC2(/C=C/c2ccccc2)C(=O)NC2CCCC2)cc1 (centres unmarked) | 33.5 |
| OC1CCCN(c2ncnc3c2nnn3Cc2c(F)cccc2Cl)C1 (centres unmarked) | 7.5 |
| Cn1c(C(=O)N2CCN(c3ccccc3)CC2)cc2cc(Cl)ccc21 | 14.3 |
